Laboratory results as given in PubChem BioAssay AID1508642 (National Center for Advancing Translational Sciences (NCATS), 2021).
The whole screen tested about 43,000 compounds, of which about 200 (0.47%) were called active. Inconclusive results (about 12%) are left out. Calls follow the shape of the dose curve; as a rule, active = well fitted cell-killing curve with a large enough effect; inconclusive = small, poorly fitted or top-dose-only effect, or effect the other way; inactive = flat fitted curve, though single readings scatter. The list shows a part of the results.

Test: Cell viability qHTS assay in S16 Pmp22-F2sN cells; also: nearly all actives have a fitted effect of over 65% in size
Conditions: S16 Pmp22-F2sN Schwann cells (luciferase reporters placed in the Pmp22 gene) viability, CellTiter-Glo, 24 h; series mostly up to 57.5 µM; activity change, negative = cytotoxicity: at the top concentration
Text: Assay Provider: Jim Inglese Ph.D. National Center for Advancing Translational Science, National Institutes of Health, Rockville, MD CMT is a heterogeneous group of neurological disorders that affect approximately 1 in 2,500 people. In particular, the most common form of CMT, CMT1A is genetically linked to the duplication of the PMP22 gene which leads to Schwann cell overexpression, thus manifesting itself as a typical case of dose-sensitive diseases. To identify small molecule compounds that can mediate the expression of PMP22 we developed a phenotypic assay screening strategy by utilizing genome editing techniques to construct Schwann cell lines containing novel reporter technology to monitor the transcriptional or translational regulation of PMP22. For high sensitivity we use a bioluminescent reporter system embedded in the 3' UTR of the PMP22 gene (S16(c9) Pmp22-F2sN) to identify compounds that inhibit gene expression. […] We can further discriminate the effect of all transcriptionally active molecules on PMP22 translation or stability with an assay that incorporates a short NLuc peptide (HiBiT) at the C-terminus of expressed PMP22 (S16(f8) PMP22-HiBiT) allowing alpha complementation and luminescence detection of membrane-associated PMP22 protein. These assays were screened against the NCATS Sytravon Library Collection. Miniaturization of these assays to 1536-well plate format for quantitative high throughput screening (qHTS) yielded rich data sets immediately from the qHTS assay (S16(c9) Pmp22-F2sN), when compared with data from a cell viability assay (Cell TiterGlo) to identify compounds that decreased the output signals through cellular toxicity to streamline the selection process of actives for subsequent characterization using the HiBiT assay (S16(f8) PMP22-HiBiT).
Cell viability assay in S16 Pmp22-F2sN cells PROTOCOL TABLE (format as described by Inglese J, Shamu CE and Guy RK. 2007) SEQUENCE No. (e.g., 1, 2, 3, etc.); […] (e.g., Cells, Incubation, Reagent, etc.); VALUE and DESCRIPTION. 1. Cells. Add 500-1,000 cells in 4 uL in growth media (DMEM High Glucose, No Phenol Red media + 10% heat-inactivated FBS + 1% Pen/Strep supplemented media) per well into Greiner 1536-well white/solid bottom high base, TC-treated plates. 2. Compounds. Library compounds and controls added at 23nL per well, transferred by Pin Tool. 3. Incubation. Incubate plates at 37C, 5% CO2, 95% RH for 24 h. 4. Reagent. Add 3uL CellTiter-Glo per well of Greiner 1536-well plates. 5. Incubation. Incubate plates at room temperature for 15 min., protect from light. 6. Detector. FLuc luminescence measured using CCD-based camera (Viewlux). NOTES (numbers refer to Sequence numbers above; values are from representative experiments) 6. Luminescence Read: Clear filter; Exposure = 1 sec, Gain = High, Speed = Slow, Binning = 2X REFERENCES: 1. Inglese J, Shamu CE and Guy RK, Reporting data from high throughput screening of small molecule libraries, Nature Chemical Biology, 2007, 3(8): 438-441. doi.org/10.1038/nchembio0807-438 2. Yasgar A, Shinn P, Jadhav A, Auld DS, Michael S, Zheng W, Austin CP, Inglese J and Simeonov A, Compound Management for Quantitative High-Throughput Screening. J. Assoc. Lab. Auto., 2008, 13: 79-89. doi: 10.1016/j.jala.2007.12.004
% is scaled to controls: 0 for no effect and ±100 for the full control effect; potency is read from the fitted curve at half-maximal effect.

SMILES | activity change, negative = cytotoxicity | Potency
COc1ccc(NC(=O)c2ccco2)cc1NC(=O)c1cc(Br)ccc1Cl | inactive: 5.74% | 
CCOc1ccc(C(=O)c2oc3ccccc3c2NC(=O)c2cc(=O)c3ccc(C)cc3o2)cc1 | inactive: 0.142% | 
Cc1oc2ncnc(N3CCCCC3)c2c1C(=O)N1CCN(c2ccc(Cl)cc2)CC1 | inactive: 19.4% | 
COc1ccc(S(=O)(=O)N(CC(=O)NCCc2ccccc2)c2ccc(Cl)cc2)cc1 | inactive: 19.3% | 
CCOC(=O)c1ccccc1NC(=O)CSc1cn(CC(=O)N2CCCCCC2)c2ccccc12 | inactive: -2.94% | 
CCCCN(CC)CCNC(=O)c1nn(C)c2c1CS(=O)(=O)c1ccccc1-2 | inactive: 7.98% | 
CCc1ccc(NC(=O)CCCc2nnc3n(C(C)CC)c(=O)c4sccc4n23)cc1 (stereo unspecified) | inactive: 4.26% | 
COc1ccc(-c2nc3c4ccccc4n(CC(=O)N4CCN(c5ccccc5F)CC4)c(=O)n3n2)cc1 | inactive: 11.5% | 
COc1ccc(Nc2nc3c(S(=O)(=O)c4ccc(C)cc4)nnn3c3ccsc23)cc1Cl | inactive: -8.59% | 
CC(=O)N1CCc2c(sc3c2c(=O)n(Cc2ccccc2)c(=O)n3Cc2ccccc2Cl)C1 | inactive: -14.8% | 
COc1cc2c(cc1OC)C(COc1ccccc1OC)N(C(=O)c1ccc(S(=O)(=O)N(C)C)cc1)CC2 (stereo unspecified) | inactive: 4.05% | 
Cc1ccc(Cl)cc1N1CCN(C(=O)COc2cc(=O)n(C)c3ccccc23)CC1 | inactive: -2.86% | 
COc1cccc(CNC(=O)Cn2c(=O)nc(-c3ccccc3F)c3cc(Cl)ccc32)c1 | inactive: -1.17% | 
COc1ccc(Nc2oc(/C=C/c3cc(OC)c(OC)c(OC)c3)nc2C#N)cc1 | inactive: -3.21% | 
CC1CCN(S(=O)(=O)c2ccc3c(c2)N(CC(=O)NC(C)(C)C)C(=O)CS3)CC1 | inactive: 0.136% | 
COc1cc(-c2nc(-c3ccccc3)c(-c3ccc(Br)cc3)[nH]2)cc(OC)c1O | inactive: -25.3% | 
CCCCN(CC)C(=O)CSc1nc2ccccc2c(=O)n1Cc1ccco1 | inactive: -18.5% | 
COC(=O)c1cc2sc(Cl)cc2n1Cc1nc(-c2ccccc2C)oc1C | inactive: 2.19% | 
COc1ccc(NC(=O)C2CCN(c3ccc(Sc4ccc(C)cc4)nn3)CC2)cc1 | inactive: 23.7% | 
CC1CN(C(=O)N2CCC(C(=O)NCc3cccs3)CC2)c2ccccc2O1 (stereo unspecified) | inactive: 6.88% | 
CCC1CCCCN1CCCNC(=O)c1c(O)nc2cc(C)ccn2c1=O (stereo unspecified) | inactive: 0.85% | 
Cc1cc(C)c(Cn2cnc3nc4c(cc3c2=O)CCCC4)c(C)c1 | inactive: -0.921% | 
O=C(CN1C(=O)c2ccccc2Sc2ncccc21)Nc1cccc(C(F)(F)F)c1 | inactive: 0.734% | 
COc1ccc(Nc2cc(C)c3cc(NC(=O)COc4cccc(C)c4)ccc3n2)cc1 | inactive: 12% | 
COc1cccc(CNC(=O)C2=C(C)C(=O)OC23CCCCCC3)c1 | inactive: -1.18% | 
COc1ccc2nc(NC(=O)c3nc(S(=O)(=O)Cc4ccc(C)cc4)ncc3Cl)sc2c1 |  | active: 28.2 µM
